From the supplement of paper PMC12632987
Whole data set: some 2,300 sequences, median “median log2 fold change of GCK-ALFA target abundance (FLAG IP / Myc IP barcode read proportion)” near 0.095, cut for the lowest 2% near -0.47. Some of the results follow.

B1: LC3A_45_1919 (protein)
chain: MWEAVVDILVPREDLEKALAVIREVAREIEEETGGAVRFDLEGLDASAEASRDEEEVYLRVTIYAPTRELALDAADRIVERLEEALGRKVAAAISYRELP
B2: LC3A_141_360 (protein)
chain: ETKTETWTFTATTFEEAEKVAKEIGEKIRKFMKETGAKEVTVTITITSYNKKTGETKTETHTDTVTPENLDLFEEGVLIDLLSQFENGADEVKVTVTMES
B3: LC3A_3_1512 (protein)
chain: MEEFIKELKELLESFGASEEVIELAVENLKLLLERGYEEAAKTFFELIKEMKDLSNEDLLEFNKEVLELLKSTDLSEEEIIEKIKEIAKTTKNASEIEEL
B4: LC3A_127_197 (protein)
chain: EEEKLLEEAIKLAEKLSEELQKEDYDLEKLKELAEKLLEVLKKLVELNPRFEPLLKDAEQILELLEKMEELNEAEQEELREHLLMLVEGVIIELLSLSLE
B5: LC3A_28_1172 (protein)
chain: SAIEKNVEEALARAEEARKKKEPTVITIKVPDGATQEEIDLVIEAMERIAELLKDIKGAAIVIDVGGGVKQEHIDLLMEKADEIEKKYPNVNVIIALDED
B6: LC3A_147_402 (protein)
chain: PKLVATIDVLGEKSKELAIESAKALAEELKAKGAEVELEIEEEELEPGEVYVRITITVKTETEELLKEAEALILDRYDKLSEEIAALGGASILSIDRVEE
B7: LC3A_free_39_2179 (protein)
chain: SEEEEEEVEEEILELAEEVGEEAKEIAEEILELVEGNLELKKLILEGLKKLKEEGGDVLEALKRILEIVKEGLKEGLSWEEIKKRIKEELEDFLNLIPLD
B8: LC3A_28_742 (protein)
chain: SALDEQLAAALAEAKAAAAAGEPQVITITVSGTANQEDIDKVIAALEEIAAILKDVKDQAIIVDVDGKLDQDLLTKLADAAEAIEKKYPNVTVIIALDEE
B9: LC3A_free_46_2295 (protein)
chain: YIVEIDVYLDGLTEEQAKEFVEELKKRLEEIAKKYGVEIKIDVKIEKNEDGTYFVEIDITIKAPTKELAEKVKNEVIDVIDELAEKYGASYIISYEIEEA
B10: LC3A_3_1348 (protein)
chain: SEELIEKQVERLREAGFSEEVIEAARRLLELLAKKGHEKAMERVVEVLLKHKDAPEEKIIEALNNAARELEENPNATEEEVEELIKLLENDLEIEPIEEE
B11: LC3A_28_669 (protein)
chain: GSLKEALEKKLAEAKKAAAAGEPTVFVIEVPGDATEEDIEYFIEKLEEIAELLKNVKGSAIIVDLSGKLSEEHRNKIIDKAEEINKKYPNVTVIIALEDE
B12: LC3A_45_1993 (protein)
chain: MYKATVDILVPKELAEEVYEAVKEIAEELVKESGGKVKVDWETLEKSYEATKDEEEVLLEVNIYAEDKDLALDAADRLEERLHEKFGDSIASIISVEEVP
B13: LC3A_45_2002 (protein)
chain: MWEITVDLLGPKAKVERAVALIREAAAAFSAATGVTVEVDLSEAEEALASEKNEEEVFVTVTIRLAGDQADADALVQALDAVHAQVGPDVAMVISVEEVP
B14: LC3A_3_1598 (protein)
chain: MEELVEELLKKLKEAGLPEEVLKAARKVLEALAEKGFEEAAKTLAEELLELKDAPPEDLLDMLEEILRKVETEDLNEEEVIELIKEEARVLREGLEIEEL
B15: LC3A_132_319 (protein)
chain: MEEKYKKILEEIKKKIEEARKNIDDEEKVKKLVEEIKKLLKEAEKILTPEQVAELAEEAARRLDEVSREAEKAGKENVALIFDGAAVEAAAIAIRAEEKI
B16: LC3A_3_1405 (protein)
chain: FEEIEKEIIETLKSMGASEEVIEAAKKVVKKLKERGYLEAAKKLLEEVKKLKNASDEILLWFFEEVLKYLEENDDSEEEVVKKIEEFAKIAKNANEIEEL
B17: LC3A_3_1694 (protein)
chain: MEELVAEALAVAEENGWSPETLAALRRLLEALAARGYEEAIKTLLEELKKLKDASSEDLRWMFEELLHLLETEDLDEEELTEAIKEEARVLKEDKEIEEL
B18: LC3A_3_1890 (protein)
chain: LEEEVEETLELLREKGASEETIELFLEAVELLKERGYEEALKTLIEEVRELADAPDEILLDFLKEVLEVLKNEDLSEEELIKRIKELARLARNEAEIEEL
B19: LC3A_28_963 (protein)
chain: SALEKQLEAVLAEAEKAAAAGEAKVFTINVPGTADEADIERVIATIKRIAELLKDVKGSAIIVSVDAGVKQEHIDRLADTLEEIEKKYPNITAILALDED
B20: LC3A_28_1143 (protein)
chain: SPIVEKVKKKIDESYEETKDEKEVFLDVNIEEEITVEEAKEIMDYVEEVVKKLKDKEKISVVVTFDKPVSQEVLNTIADKGEEIEKKFPNVDVIIALPED
B21: LC3A_free_46_2361 (protein)
chain: TKISIDFLAKGKTEEEAKEFAKELEERIKEAAKEAGAEVKIETKIEKDEEGDIFINVDIEIKAPNREIEEKAVQKILDIVDELSKEKNLAAIVSIEYVEP
B22: LC3A_28_895 (protein)
chain: SAAIKKAQAALAEAKAALAAGSTEPLVLEVDAPSTEEDVDKFLELLEEIAKVGDQRPGVAIVIDVDSSVSQENIDKVIDKAEELEKKYPNVTIIIALPED
B23: LC3A_3_1825 (protein)
chain: MEKEKEELIKALKEAGHSEETIEAVEETLKALLEKGYEEAAKTFIELVKEMLDLPSELLLELAKDVKELVESEDLSEEELKEKIKELAKLYRNESEIIEL
B24: LC3A_free_46_2298 (protein)
chain: YIVEIDVDLYGLTKEQAEEFVKELKERLKEIAKKYNVKVKIKVKIEKNEDGTYYVEIDIEVEAETLELAKEVMQEIIDTIEELAEKYGASYIISYEIKEA
B25: LC3A_28_870 (protein)
chain: SAIEKQVKAVKEELEKQAKEGEDAVVTVEITSEMSLEEAVELMNRVLEVAKEYVKKTGLKVTIVIDYDGDQETLNAIADLAEKAEKENPKITVIIALPEE
B26: LC3A_3_1393 (protein)
chain: FEEIKKEAEKTLKEFGRSEEVIKKAKEVLDALAKKGYLEAAKTFLEELKEMKDLSDEILLWFLEEVLRYIEENDASEEEVVKFIKEEARTAKNEGEIEEL
B27: LC3A_28_851 (protein)
chain: SKVDEQIAAARAELEAAAAAGEPVVLELTVKGDFTDEEIDKFIEGLKELAALADSHGGHAIVINIEEGVKDEHIDKIMETAEEIEKKYPKVTVIIALPEN
B28: LC3A_28_1150 (protein)
chain: SAMVEEAKAQIEKDAEEDKNEEEVYLNVTIKKGITLEEAKEIMDHVEEVVEKLKDKKKIYIVVDFEEPISQEVLDLILERSERIEEKFPNVSVIIALHED
B29: LC3A_147_477 (protein)
chain: ARVDIDALVKDEEAAEELVERVREKVEELRERGIEVEVEIEVEQLDPDTWYVRIEIEIEAETEEEEREAADEVVDYIDEFIEENKDRILASIISVEFIEE

molecular target: MAP1LC3A, Q9H492; experiment: median log2 fold change of GCK-ALFA target abundance (FLAG IP / Myc IP barcode read proportion) (log2 ratio); each designed protein is fused to an ALFA-tag nanobody in HEK293 cells to bring the named protein to FLAG-tagged glucokinase (GCK); Myc marks an untargeted standard; higher = target protein stabilised (more abundant); conditions: target protein: 3xFLAG-MCP-GCK-ALFA reporter; HEK293 landing pad (RPLP)
Outline: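 Sequencing of reverse-transcribed, amplified circular RNA barcodes from anti-FLAG and anti-Myc immunoprecipitates provided the readout for an ALFA-nanobody-fused binder library recombined into HEK293 landing-pad cells. Those cells were induced with 2 μg mL^−1 doxycycline, transfected with a plasmid expressing a FLAG-tagged target and a Myc-tagged standard, and lysed after 48 h. Target abundance is the per-binder median log2 ratio of FLAG to Myc barcode read proportions. Only barcodes at a proportion of ≥10^−7 in both replicates and binders with ≥3 barcodes per replicate were kept, with a 10^−6 pseudocount added before the two replicates were pooled.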

Binder	median log2 fold change
B1	0.142
B2	0.363
B3	0.354
B4	0.142
B5	0.121
B6	0.127
B7	0.159
B8	0.197
B9	0.036
B10	0.271
B11	-0.167
B12	-0.314
B13	-0.0111
B14	0.257
B15	0.217
B16	0.273
B17	0.235
B18	0.228
B19	0.182
B20	0.379
B21	0.0603
B22	-0.305
B23	0.422
B24	-0.318
B25	-0.164
B26	0.556
B27	-0.464
B28	-0.157
B29	-0.34
